The other results are listed elsewhere or left out. Rule as the data show it: active = 3.2 or more and inactive = the rest. The signal is at background level for most entries.
How the values were obtained:
Test in all cases: enrichment score (SH2-bound / input frequency) (ratio); bacterial display of known human phosphotyrosine sites (pTyr-Var adds point mutants) read by sequencing; higher = stronger binding; tyrosines were phosphorylated by kinases first
Conditions in all cases: peptide library: pTyr-Var
SHP2 C-SH2 domain E139D = target: SHP2 C-SH2 domain E139D
[1] = target: SHP2 C-SH2 domain wild-type
SHP2 N-SH2 domain L43F = target: SHP2 N-SH2 domain L43F
SHP2 N-SH2 domain T42A = target: SHP2 N-SH2 domain T42A
SHP2 N-SH2 domain T52S = target: SHP2 N-SH2 domain T52S
[2] = target: SHP2 N-SH2 domain wild-type
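Also: displayed peptides selected on beads carrying the immobilized SH2 domain, with library peptides lacking any tyrosine serving as negative controls.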

Binder | enrichment score (SHP2 C-SH2 domain E139D) | enrichment score [1] | enrichment score (SHP2 N-SH2 domain L43F) | enrichment score (SHP2 N-SH2 domain T42A) | enrichment score (SHP2 N-SH2 domain T52S) | enrichment score [2]
WHHTFYNELRV [ACTA1_Y93] | inactive: 2.61 | inactive: 2.83 | inactive: 2.57 | inactive: 2.58 | inactive: 2.59 | inactive: 2.56
GIVEDYRPRFY [ACVRL1_Y421_P424R] | inactive: 0.855 | inactive: 0.796 | inactive: 0.82 | inactive: 0.553 | inactive: 0.721 | inactive: 0.966
SSSNPYSTVTV [ACTN2_Y599_M604V] | inactive: 1.34 | active: 3.27 | inactive: 0.804 | inactive: 1.57 | inactive: 0.663 | inactive: 0.649
ILTLKYPIERG [ACTA1_Y71_H75R] | inactive: 1.53 | inactive: 1.13 | inactive: 1.65 | inactive: 1.34 | inactive: 1.35 | inactive: 2.45
GGTTMYPGIAD [ACTC1_Y308] | inactive: 0.747 | inactive: 0.635 | inactive: 0.684 | inactive: 0.679 | inactive: 0.66 | inactive: 0.728
VGTKRYRAPEV [ACVRL1_Y375_M376R] | inactive: 0.465 | inactive: 0.432 | inactive: 0.466 | inactive: 0.517 | inactive: 0.391 | inactive: 0.479
ISKQGYDEAGP [ACTC1_Y364_E363G] | inactive: 0.577 | inactive: 0.507 | inactive: 0.619 | inactive: 0.672 | inactive: 0.785 | inactive: 0.72
AVLSLYASGST [ACTG2_Y144_R148S] | inactive: 1.07 | inactive: 1.12 | inactive: 1.01 | inactive: 0.968 | inactive: 1.03 | inactive: 1.11
SIVEDYRPPFY [ACVRL1_Y421_G416S] | inactive: 0.42 | inactive: 0.593 | inactive: 0.713 | inactive: 0.646 | inactive: 0.849 | inactive: 1.25
GIVEDYRPRFF [ACVRL1_Y421_P424R_YF] | inactive: 0.667 | inactive: 0.649 | inactive: 0.589 | inactive: 0.458 | inactive: 0.691 | inactive: 0.735
LTERDYSFVTT [ACTG2_Y199_G198D] | inactive: 0.476 | inactive: 0.411 | inactive: 0.432 | inactive: 0.465 | inactive: 0.359 | inactive: 0.62
VGTKRYVAPEV [ACVRL1_Y375_M376V] | inactive: 0.515 | inactive: 0.468 | inactive: 0.415 | inactive: 0.438 | inactive: 0.445 | inactive: 0.532
KAIMTYVPSFF [ACTN4_Y260_S262P_YF] | inactive: 1.05 | inactive: 1.12 | inactive: 0.986 | inactive: 0.976 | inactive: 1.03 | inactive: 1.04
LTECGYSFTTT [ACTB_Y198_R196C] | inactive: 0.853 | inactive: 0.836 | inactive: 0.721 | inactive: 0.737 | inactive: 0.547 | inactive: 0.853
GGSTFYIDTNA [ACTL6A_Y69_P66S_YF] | inactive: 0.967 | inactive: 0.55 | inactive: 0.683 | inactive: 1.22 | inactive: 0.746 | inactive: 0.859
NKHTNYTMEHI [ACTN1_Y708] | inactive: 0.773 | inactive: 0.612 | inactive: 0.696 | inactive: 0.454 | inactive: 0.588 | inactive: 0.699
YVPSFYHAFSG [ACTN4_Y265_S262P] | inactive: 1.17 | inactive: 1.18 | inactive: 1.23 | inactive: 1.2 | inactive: 1.38 | inactive: 1.09
SLEKGYELPDG [ACTC1_Y242_S241G] | inactive: 0.653 | inactive: 0.624 | inactive: 0.729 | inactive: 0.475 | inactive: 0.518 | inactive: 0.579
ILTLKYPIELG [ACTA1_Y71_H75L] | inactive: 1.57 | inactive: 1.51 | inactive: 1.51 | inactive: 1.51 | inactive: 1.71 | inactive: 1.28

Binder | enrichment score (SHP2 C-SH2 domain E139D) | enrichment score [1] | enrichment score (SHP2 N-SH2 domain L43F) | enrichment score (SHP2 N-SH2 domain T42A) | enrichment score (SHP2 N-SH2 domain T52S) | enrichment score [2]
GIVEDYRPPVF [ACVRL1_Y421_F425V_YF] | inactive: 0.977 | inactive: 0.772 | inactive: 0.996 | inactive: 0.781 | inactive: 0.789 | inactive: 0.98
KAIMTYVFSFY [ACTN4_Y260_S262F] | inactive: 1.44 | inactive: 1.4 | inactive: 0.898 | inactive: 1.02 | inactive: 1.24 | inactive: 1.72
NLTLKYPIEHG [ACTA1_Y71_I66N] | inactive: 1.23 | inactive: 0.965 | inactive: 0.808 | inactive: 0.978 | inactive: 0.864 | inactive: 0.919
KAIMTYVSSFF [ACTN4_Y260_YF] | inactive: 0.791 | inactive: 0.721 | inactive: 0.714 | inactive: 0.624 | inactive: 1.08 | inactive: 0.687
VGTKQYMAPEV [ACVRL1_Y375_R374Q] | inactive: 0.843 | inactive: 0.549 | inactive: 0.723 | inactive: 0.669 | inactive: 0.75 | inactive: 0.626
HNVPICEGFAL [ACTC1_Y168_Y168C_YF] | inactive: 0.771 | inactive: 1.05 | inactive: 0.837 | inactive: 0.889 | inactive: 0.83 | inactive: 1.19
PELIDYGKLWK [ACTN1_Y193_R197W] | inactive: 0.873 | inactive: 0.704 | inactive: 0.808 | inactive: 1.03 | inactive: 0.758 | inactive: 0.717
KAIMTYVFSFF [ACTN4_Y260_S262F_YF] | inactive: 1.87 | inactive: 2.13 | inactive: 1.91 | inactive: 1.25 | inactive: 1.87 | inactive: 1.59
VGTKRYMAPDV [ACVRL1_Y375_E379D] | inactive: 0.699 | inactive: 0.667 | inactive: 0.445 | inactive: 0.529 | inactive: 0.62 | inactive: 0.51
KAIMIYVSSFF [ACTN4_Y260_T259I_YF] | inactive: 1.52 | inactive: 1.32 | inactive: 1.38 | inactive: 1.26 | inactive: 1.42 | inactive: 1.36
VGTKRYMAPEV [ACVRL1_Y375] | inactive: 0.659 | inactive: 0.611 | inactive: 0.478 | inactive: 0.653 | inactive: 0.595 | inactive: 0.636
GIVEDYRPTFY [ACVRL1_Y421_P424T] | inactive: 0.747 | inactive: 0.939 | inactive: 0.937 | inactive: 0.823 | inactive: 0.884 | inactive: 0.989
PELIDYGKLRK [ACTN1_Y193] | inactive: 0.452 | inactive: 0.484 | inactive: 0.552 | inactive: 0.375 | inactive: 0.499 | inactive: 0.487
FVSSFYHAFSG [ACTN4_Y265_YF] | inactive: 2.57 | inactive: 2.4 | inactive: 2.29 | inactive: 2.36 | inactive: 2.29 | inactive: 2.17
SLEKSYELLDG [ACTB_Y240_P243L] | inactive: 0.658 | inactive: 0.692 | inactive: 0.8 | inactive: 0.639 | inactive: 0.607 | inactive: 0.694
KAIMTYVPSFY [ACTN4_Y260_S262P] | inactive: 0.841 | inactive: 0.771 | inactive: 0.893 | inactive: 0.828 | inactive: 0.852 | inactive: 0.8
GIVEDYRPPLF [ACVRL1_Y421_F425L_YF] | inactive: 0.927 | inactive: 0.881 | inactive: 0.908 | inactive: 0.619 | inactive: 0.748 | inactive: 0.813
FVPSFYHAFSG [ACTN4_Y265_S262P_YF] | inactive: 1.46 | inactive: 1.71 | inactive: 1.35 | inactive: 1.58 | inactive: 1.62 | inactive: 1.4
